Test results as given in the CheMixHub viscosity set.
“And” between values parts separate entries of the source, which are not always exact repeats. Equal entries are not always repeated. ± gives the uncertainty stated by the source. Further values from the same series stand in other lists.

Experiment: xn = mol fraction of the nth substance listed

CN(C)C=O + O
viscosity
Details | 313.15 K | 318.15 K | 323.15 K
101 kPa, x1 = 0.02 | – | 0.712 ± 0.0069 mPa·s | –
101 kPa, x1 = 0.05 | – | 0.8262 ± 0.0094 mPa·s | –
101 kPa, x1 = 0.0503 | – | 0.8604 ± 0.0077 mPa·s | –
101 kPa, x1 = 0.0699 | – | 0.9618 ± 0.0082 mPa·s | –
101 kPa, x1 = 0.1 | – | 1.039 ± 0.013 mPa·s | –
101 kPa, x1 = 0.1006 | – | 1.097 ± 0.0089 mPa·s | –
101 kPa, x1 = 0.1202 | – | 1.168 ± 0.0093 mPa·s | –
101 kPa, x1 = 0.1498 | – | 1.275 ± 0.0099 mPa·s | –
101 kPa, x1 = 0.15 | – | 1.211 ± 0.016 mPa·s | –
101 kPa, x1 = 0.1698 | – | 1.33 ± 0.01 mPa·s | –
101 kPa, x1 = 0.2 | – | 1.319 ± 0.018 mPa·s | –
101 kPa, x1 = 0.2002 | – | 1.399 ± 0.01 mPa·s | –
101 kPa, x1 = 0.22 | – | 1.432 ± 0.011 mPa·s | –
101 kPa, x1 = 0.25 | – | 1.379 ± 0.02 mPa·s | –
101 kPa, x1 = 0.2504 | – | 1.467 ± 0.011 mPa·s | –
101 kPa, x1 = 0.2702 | – | 1.478 ± 0.011 mPa·s | –
101 kPa, x1 = 0.3 | – | 1.395 ± 0.021 mPa·s | –
101 kPa, x1 = 0.3001 | – | 1.481 ± 0.011 mPa·s | –
101 kPa, x1 = 0.3202 | – | 1.474 ± 0.011 mPa·s | –
101 kPa, x1 = 0.3499 | – | 1.453 ± 0.011 mPa·s | –
101 kPa, x1 = 0.35 | – | 1.369 ± 0.021 mPa·s | –
101 kPa, x1 = 0.4 | – | 1.322 ± 0.022 mPa·s | –
101 kPa, x1 = 0.4003 | – | 1.391 ± 0.01 mPa·s | –
101 kPa, x1 = 0.4503 | – | 1.313 ± 0.01 mPa·s | –
101 kPa, x1 = 0.5 | 1.362 ± 0.01 mPa·s | 1.206 ± 0.021 mPa·s and 1.229 ± 0.0095 mPa·s | –
101 kPa, x1 = 0.5714 | 1.23 ± 0.23 mPa·s | – | –
101 kPa, x1 = 0.6 | – | 1.051 ± 0.02 mPa·s | –
101 kPa, x1 = 0.6002 | 1.16 ± 0.0091 mPa·s | 1.059 ± 0.0086 mPa·s | –
101 kPa, x1 = 0.7 | 0.9927 ± 0.0082 mPa·s | 0.9005 ± 0.019 mPa·s and 0.9164 ± 0.0078 mPa·s | –
101 kPa, x1 = 0.8 | 0.8629 ± 0.0075 mPa·s | 0.7907 ± 0.018 mPa·s and 0.804 ± 0.0072 mPa·s | –
101 kPa, x1 = 0.8171 | 0.938 ± 0.2 mPa·s | – | –
101 kPa, x1 = 0.8501 | 0.828 ± 0.0073 mPa·s | 0.7734 ± 0.007 mPa·s | –
101 kPa, x1 = 0.9 | 0.7822 ± 0.0071 mPa·s | 0.7083 ± 0.017 mPa·s and 0.7333 ± 0.0068 mPa·s | –
101.33 kPa, x1 = 0.099 | 1.183 ± 0.0094 mPa·s | 1.057 ± 0.0085 mPa·s | 0.949 ± 0.0078 mPa·s
101.33 kPa, x1 = 0.2009 | – | 1.36 ± 0.011 mPa·s | 1.207 ± 0.0097 mPa·s
101.33 kPa, x1 = 0.3008 | 1.62 ± 0.013 mPa·s | 1.436 ± 0.011 mPa·s | 1.274 ± 0.01 mPa·s
101.33 kPa, x1 = 0.3995 | 1.51 ± 0.012 mPa·s | 1.349 ± 0.01 mPa·s | 1.207 ± 0.0096 mPa·s
101.33 kPa, x1 = 0.5005 | 1.306 ± 0.01 mPa·s | 1.179 ± 0.0093 mPa·s | 1.069 ± 0.0086 mPa·s
101.33 kPa, x1 = 0.5999 | 1.12 ± 0.0089 mPa·s | 1.024 ± 0.0082 mPa·s | 0.9379 ± 0.0076 mPa·s
101.33 kPa, x1 = 0.6997 | 0.954 ± 0.0078 mPa·s | 0.8831 ± 0.0073 mPa·s | 0.8189 ± 0.0068 mPa·s
101.33 kPa, x1 = 0.7998 | 0.8344 ± 0.0069 mPa·s | 0.7797 ± 0.0065 mPa·s | 0.7282 ± 0.0062 mPa·s
101.33 kPa, x1 = 0.9 | 0.7417 ± 0.0063 mPa·s | 0.6979 ± 0.006 mPa·s | 0.6585 ± 0.0057 mPa·s
